The whole screen tested about 150,000 compounds, of which about 540 (0.36%) showed an effect of 50% or more. Some of the results follow.
These molecules were tested on Plasmodium falciparum (assay: Primary screen in NF54 nanoGlo assay, in single point, at 2uM, 72h; a lower Z score goes with more inhibition). Conditions: timepoint 72 hour.
Type: functional, Erythrocyte

**Q.** What does the source list for `COCCN(CCOC)C(=O)c1[nH]nc(C(C)C)c1Br`?
**A.** % Inhibition: -1%; Z score: 0.2

**Q.** Which “% Inhibition” value does the source give for `Clc1ccc2c(c1)[C@H]1OCCC[C@H]1C(c1ccccc1)N2` (some centres not stated) here?
**A.** Its value is -1%.

**Q.** What about the Z score of the same molecule?
**A.** The Z score was 0.21.

**Q.** How did the “% Inhibition” value turn out when `Cc1nnc2c(N3CCN(C(=O)Cc4c(F)cccc4Cl)CC3)nccn12` was run?
**A.** Its value is -15%.

**Q.** And the Z score?
**A.** Its Z score is 2.58.

**Q.** Which “% Inhibition” value does the source give for `O[C@@H](CNCc1cc(Cl)ccc1F)c1cccnc1` here?
**A.** Its value is -2%.

**Q.** And the Z score?
**A.** The Z score was 0.41.

**Q.** For `N#Cc1ccc(CN2CCn3nc(CCC(=O)NC4CCCC4)cc3C2)cc1`, which “% Inhibition” value is on record?
**A.** The value was -4%.

**Q.** And the Z score?
**A.** Its Z score is 0.71.

**Q.** Which results are given for `CCCNC(=O)NCCc1ncc(C)n1C(C)C`?
**A.** % Inhibition: -7%; Z score: 0.71

**Q.** What does the source list for `Cn1cccc1C(=O)N1CCC(n2cc(C(=O)N3CCCC3)nn2)CC1`?
**A.** % Inhibition: 2%; Z score: -0.42

**Q.** How did the “% Inhibition” value turn out when `Nc1nc(N[C@H]2CCN(Cc3ccccc3)C2)c2cn[nH]c2n1` was run?
**A.** Its value is -2%.

**Q.** What about the Z score of the same molecule?
**A.** The Z score was 0.47.

**Q.** How did the “% Inhibition” value turn out when `CCN(CC)CC(=O)Nc1ccc(Cl)cc1F` was run?
**A.** Its value is 5%.

**Q.** And the Z score?
**A.** Its Z score is -0.72.

**Q.** For `O=C(Nc1cc(F)cc2c1OCOC2)N1CC(=O)N2CCc3c(F)cccc3[C@@H]2C1`, which “% Inhibition” value is on record?
**A.** The value was -29%.

**Q.** What about the Z score of the same molecule?
**A.** The Z score was 3.47.

**Q.** `CCN(C(=O)c1cnns1)C1CCCCC1C` (configuration not stated) was tested. Which “% Inhibition” value did it give?
**A.** The value was 4%.

**Q.** And the Z score?
**A.** Its Z score is -0.59.

**Q.** For `C[C@](O)(CCCO)CNc1cc(C(N)=O)ccn1`, which “% Inhibition” value is on record?
**A.** Its value is 0%.

**Q.** What about the Z score of the same molecule?
**A.** Its Z score is -0.03.

**Q.** Which “% Inhibition” value does the source give for `O=C(N[C@H]1CCc2ccccc21)c1cnccn1` here?
**A.** Its value is -7%.

**Q.** And the Z score?
**A.** The Z score was 0.9.

**Q.** How did the “% Inhibition” value turn out when `O=C(CN1CCC[C@H](OCCO)C1)Nc1ccc(Cl)cn1` was run?
**A.** The value was -1%.

**Q.** And the Z score?
**A.** Its Z score is 0.09.

**Q.** `CC(C)(C)c1ccc(C(=O)Nc2ccc3[nH]c(=O)oc3c2)cc1` was tested. Which “% Inhibition” value did it give?
**A.** The value was -5%.

**Q.** And the Z score?
**A.** Its Z score is 0.66.

**Q.** What does the source list for `CCC(C)(C)C(=O)N1CCc2cnccc21`?
**A.** % Inhibition: 3%; Z score: -0.38

**Q.** For `CCCn1ccnc(NC2CCCC2)c1=O`, which “% Inhibition” value is on record?
**A.** The value was 2%.

**Q.** And the Z score?
**A.** Its Z score is -0.39.

**Q.** Which results are given for `CC(C)C[C@H](NC(=O)OC(C)(C)C)C(=O)N(C)Cc1cnccn1`?
**A.** % Inhibition: 4%; Z score: -0.55

**Q.** For `CC[C@H](C)NC(=O)Cn1c(=O)c2nnc(C(C)C)n2c2ccccc21`, which “% Inhibition” value is on record?
**A.** Its value is -3%.

**Q.** And the Z score?
**A.** The Z score was 0.36.

**Q.** How did the “% Inhibition” value turn out when `Cc1cc(N2CCC(O)CC2)nc(N2CCC(O)CC2)c1C#N` was run?
**A.** Its value is 34%.

**Q.** And the Z score?
**A.** The Z score was -4.9.

**Q.** With `COc1ccc([C@H]2CC(=O)Nc3cccc4c3c2cn4Cc2ccccc2)cc1` as the molecule, how does the “% Inhibition” value read?
**A.** The value was -4%.

**Q.** And the Z score?
**A.** The Z score was 0.51.

**Q.** What does the source list for `O=C(C[C@H]1CCOC2(CCN(C(=O)c3cccc(F)c3)CC2)C1)N1CCCC1`?
**A.** % Inhibition: -4%; Z score: 0.69

**Q.** What does the source list for `Cc1ncccc1OC(=O)OC(C)(C)C`?
**A.** % Inhibition: -11%; Z score: 1.8

**Q.** How did the “% Inhibition” value turn out when `O=C(NC1CCCCC1)c1nnc(Cc2cccc(F)c2)o1` was run?
**A.** The value was -7%.

**Q.** And the Z score?
**A.** The Z score was 1.26.

**Q.** For `CCn1nc(C)cc1C(=O)N1CCC[C@H](C(=O)c2cccc(OC)c2)C1`, which “% Inhibition” value is on record?
**A.** The value was -4%.

**Q.** And the Z score?
**A.** Its Z score is 0.4.

**Q.** For `CCCC1(CO)CCCN1C[C@@H](O)c1ccccc1` (some centres not stated), which “% Inhibition” value is on record?
**A.** Its value is 1%.

**Q.** What about the Z score of the same molecule?
**A.** The Z score was -0.2.

**Q.** Which results are given for `CCOc1nc(-c2ccc(C(F)(F)F)cc2)n(-c2ccc(NC(=O)c3cccs3)cc2)n1`?
**A.** % Inhibition: -13%; Z score: 1.42

**Q.** For `O=C(N[C@H]1CCN(Cc2ccc(F)cc2Cl)C[C@@H]1O)c1cnccn1`, which “% Inhibition” value is on record?
**A.** The value was -6%.

**Q.** And the Z score?
**A.** The Z score was 0.9.

**Q.** How did the “% Inhibition” value turn out when `Cc1nc(-c2cccs2)sc1C(=O)N(C)Cc1ccc(F)cc1` was run?
**A.** The value was -1%.

**Q.** And the Z score?
**A.** Its Z score is 0.07.

**Q.** Which “% Inhibition” value does the source give for `CC(=O)NCCCOc1cccc(C)c1F` here?
**A.** Its value is -5%.

**Q.** And the Z score?
**A.** The Z score was 0.91.

**Q.** Which “% Inhibition” value does the source give for `CC1CN(C(=O)Nc2ccc(-c3ncco3)cc2)CC(CO)O1` (configuration not stated) here?
**A.** Its value is -11%.

**Q.** And the Z score?
**A.** The Z score was 1.47.

**Q.** How did the “% Inhibition” value turn out when `O=C(Cc1cccc2ccccc12)Nc1sc2c(c1C(=O)O)CCCC2` was run?
**A.** Its value is -9%.

**Q.** What about the Z score of the same molecule?
**A.** Its Z score is 1.23.

**Q.** Which “% Inhibition” value does the source give for `CN1CCCN(CC(=O)N2CC[C@@](O)(c3ccccc3)[C@H]3CCCC[C@H]32)CC1` here?
**A.** Its value is -5%.

**Q.** And the Z score?
**A.** Its Z score is 0.96.

**Q.** For `CC(C(=O)Nc1nccs1)N1CCC(C)C2(CCC2)C1` (configuration not stated), which “% Inhibition” value is on record?
**A.** The value was -1%.

**Q.** What about the Z score of the same molecule?
**A.** The Z score was 0.24.

**Q.** With `COc1ccc(OC)c([C@H](C)Nc2ccc3c(c2)C(=O)NC3)c1` as the molecule, how does the “% Inhibition” value read?
**A.** Its value is -6%.

**Q.** And the Z score?
**A.** Its Z score is 0.79.

**Q.** What does the source list for `COc1ccc([C@H](Cc2ccc(F)cc2)NCc2cncs2)cc1`?
**A.** % Inhibition: -4%; Z score: 0.49

**Q.** How did the “% Inhibition” value turn out when `O=c1ccc(CN2CCN(c3ccccc3)CC2)cn1CC1CC1` was run?
**A.** Its value is -18%.

**Q.** What about the Z score of the same molecule?
**A.** Its Z score is 1.95.

**Q.** Which “% Inhibition” value does the source give for `Cc1ccc(NC(=O)Cc2c(C)nc(C)[nH]c2=O)cc1` here?
**A.** Its value is -4%.

**Q.** And the Z score?
**A.** The Z score was 0.37.

**Q.** How did the “% Inhibition” value turn out when `N#CCC1(Cn2c(=O)ccn2-c2ccccc2)CC1` was run?
**A.** The value was 3%.

**Q.** And the Z score?
**A.** Its Z score is -0.57.

**Q.** With `O=C(COc1cccc(Cl)c1)NC1CC2CCC1C2` (configuration not stated) as the molecule, how does the “% Inhibition” value read?
**A.** Its value is -9%.

**Q.** And the Z score?
**A.** The Z score was 1.2.

**Q.** With `Cc1cc(C)n(C2CN(C3CCN(c4ccc5c(c4)OCO5)CC3)C2)n1` as the molecule, how does the “% Inhibition” value read?
**A.** Its value is -4%.

**Q.** And the Z score?
**A.** Its Z score is 0.57.

**Q.** Which results are given for `CC(C)[C@@H](C)CC(=O)N1CCC(O)(C(N)=O)CC1`?
**A.** % Inhibition: -3%; Z score: 0.42

**Q.** How did the “% Inhibition” value turn out when `Cc1ccnc(N2C[C@H](COc3ccccc3)OC(C)(C)C2)c1C#N` was run?
**A.** The value was -13%.

**Q.** And the Z score?
**A.** Its Z score is 1.57.

**Q.** Which “% Inhibition” value does the source give for `COCC1CCN(C[C@]2(O)CCCN(Cc3ccccc3F)C2=O)CC1` here?
**A.** Its value is -6%.

**Q.** What about the Z score of the same molecule?
**A.** The Z score was 0.9.

**Q.** `CS(=O)(=O)N1C[C@@H]2CCCN2c2cc(C(F)(F)F)ccc21` was tested. Which “% Inhibition” value did it give?
**A.** Its value is 38%.

**Q.** What about the Z score of the same molecule?
**A.** Its Z score is -1.33.

**Q.** How did the “% Inhibition” value turn out when `CCCN(Cc1c(C)nn(-c2ccccc2)c1Oc1ccc(C)cc1)C[C@H](O)c1ccccc1` was run?
**A.** Its value is -5%.

**Q.** And the Z score?
**A.** Its Z score is 0.94.

**Q.** `CN1CCCC2(CCN(C(=O)COc3ccccc3)CC2)[C@H]1C(=O)N1CCCC1` was tested. Which “% Inhibition” value did it give?
**A.** The value was -5%.

**Q.** What about the Z score of the same molecule?
**A.** Its Z score is 1.01.

**Q.** How did the “% Inhibition” value turn out when `Cc1noc(CS(=O)(=O)Cc2csc(-c3cccs3)n2)n1` was run?
**A.** The value was -10%.

**Q.** What about the Z score of the same molecule?
**A.** Its Z score is 0.97.

**Q.** Which results are given for `C[C@@H](N)C(=O)N1CCc2cc(-c3ccccc3)ccc21`?
**A.** % Inhibition: 38%; Z score: -1.2

**Q.** Which results are given for `Cc1nnc2c(N3CCN(C(=O)CCc4cccc(Cl)c4)CC3)nccn12`?
**A.** % Inhibition: -12%; Z score: 1.99

**Q.** `Cc1ccc(N2C(=O)c3ccccc3N(Cc3ccccc3)[C@@H]2c2ccc(OCC#N)cc2)cc1` was tested. Which “% Inhibition” value did it give?
**A.** Its value is -9%.

**Q.** And the Z score?
**A.** The Z score was 1.38.

**Q.** How did the “% Inhibition” value turn out when `CN=C(NCCc1ncc(C)s1)N[C@@H](C)c1ccc(C)o1` was run?
**A.** Its value is 1%.

**Q.** And the Z score?
**A.** The Z score was -0.24.

**Q.** `O=C(CN1N=C(c2nc(-c3ccc4c(c3)OCO4)no2)CCC1=O)N1CCN(c2ccccc2)CC1` was tested. Which “% Inhibition” value did it give?
**A.** The value was -7%.

**Q.** And the Z score?
**A.** Its Z score is 1.05.

**Q.** How did the “% Inhibition” value turn out when `CCn1ncc2ccc(NC3CCC4(CC3F)OCCO4)cc21` (configuration not stated) was run?
**A.** The value was -1%.

**Q.** What about the Z score of the same molecule?
**A.** The Z score was 0.1.

**Q.** With `CN(C(=O)CN1CCC(c2nnc3cnccn23)CC1)c1nccs1` as the molecule, how does the “% Inhibition” value read?
**A.** Its value is -5%.

**Q.** And the Z score?
**A.** The Z score was 0.76.

**Q.** Which results are given for `O=C(Nc1ccon1)C1CN(C(=O)COc2ccccc2F)C1`?
**A.** % Inhibition: -11%; Z score: 1.48

Source: ChEMBL document CHEMBL4888484, “Replenishing the malaria drug discovery pipeline: Screening and hit evaluation of the MMV Hit Generation Library 1 (HGL1) against asexual blood stage Plasmodium falciparum ,using a nano luciferase reporter read-out” (2022)
